Read counts are not given, so values of variants with three or more changes are uncertain.

The chains are these.
B1: CPEB3 Ribozyme (parent)
chain: UAACAGGGGGCCACAGCAGAAGCGUUCACGUCGCAGCCCCUGUCAGAUUCUGGUGAAUCUGCGAAUUCUGCUGUAUAUCUC

The variants in this series derive from B1. Kind of series: self-cleavage, relative activity (ratio to wild type); higher = more cleavage; in vitro, sequencing. In outline:
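Barcoded CPEB3 ribozyme mutants, produced by rounds of error-prone PCR, self-cleaved while being transcribed with T7 RNA polymerase for 5 hours at 37°C and during a subsequent 15 min DNase I step before EDTA was added. Sequencing of template-switched cDNA on Illumina gave cleaved and total reads, and DNA sequencing assigned barcodes to variants. Each variant's relative activity is its cleaved/total read fraction divided by the unmutated ribozyme's fraction, averaged across three batches. A variant needed a minimum of 5 reads.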
Turning to C34U C37U U66C, the self-cleavage worked out at 0.17.

As for A35U A45G A56U U74A U80C, the self-cleavage is 0.25. Under C32U A35U A56G U60C U72A stands 0.07.

For the variant C32U A35U U43C, the self-cleavage was 0.18. Regarding C34A A35G G36C U41C U80C, the self-cleavage turned out to be 0.5.

Take C32U C40G U43A U58C: the self-cleavage was determined as 0.07.

As for C32A C37U C40U A64U, the self-cleavage was found to be 0.13. Under G33A G36A A64U stands 0.1; under A35G U51A C59A, 1.22; under U31C U41C A45G U67C U78C, 0.11.

U31C C71U C81U: the self-cleavage is 0.72. Under U31C C40A U60C C68A stands 0.12; under A35G U43C A47C U49A U80C, 0.2.

Regarding A35G U72C U78C U80C, the self-cleavage came out at 1.23.

As to A35G U43C A47G U51C, the self-cleavage stood at 1.2. Under A35G G42C A75G stands 0.16; under A35G G46U G63A, 0.87.

Regarding G33A A35C C39A, the self-cleavage stood at 0.06. Under A35U C44U A57U G70C U80C stands 0.11; under A35G C44U A47G, 0.74. Under C34U C37U U74C U80C stands 0.39; under U31G A45G A64G U67C, 0.18; under C34U C40U A56G A65G U72C U80A, 0.07. Under A35G U41A A47U U60C C62U G73U stands 0.07; under A35U A45C U49G, 0.39; under A35U C59G C68G, 0.1. Take U31G A35C A45U U49C U67C C71U: the self-cleavage came out at 0.05.

On to A35G U51G C59A, for which the self-cleavage came to 1.07.

For the variant A35G A45C U51A, the self-cleavage is 1.29.

As to G33A U49C U69C A77G, the self-cleavage is 0.05. Take G33U A35U U60C: the self-cleavage amounted to 0.09. Under C34U U49C U54C stands 0.11; under U31C U54A U66C, 0.44. Under U31C U41A A47G U78C stands 0.19; under C32U A35G A57G U72G U74C U80C, 0.03.

Take U31C U41C U69C: the self-cleavage came to 0.43.

As to A35G C38U U43C U49C G52A, the self-cleavage worked out at 0.75. Under A35C U54C C62U U69A U76G stands 0.12; under A35G U49A A56G C79A, 1.1; under U31C U41A U43A U51C C59A, 0.15. Under A35G C39A A56G stands 0.58; under U31C U41A A45G G46C A47G U67A U80A, 0.12; under A35G U41A G53A, 0.38. As for A35U A56G U60A, the self-cleavage was 0.1. Under A35U A56G U60G stands 0.12. Under A35G U66A U78C stands 1.24. Under A35G U49C U51C A64G U74G stands 0.33.

For the variant G33C U51A U54A U72A U78C, the self-cleavage worked out at 0.06.

With C32G A47U U72C, the self-cleavage came to 0.08. Take A35G U43G U69C U76C: the self-cleavage was 0.08. Regarding A35C A56G U58A A64U, the self-cleavage worked out at 0.15. Under A35G U67C U74A stands 0.59. Under C32A A47G G52A stands 0.11; under A35G C38U U74C U80C, 1.29; under C34U U43C U69C, 0.1. As for A35G U41C U60G, the self-cleavage was determined as 0.91. On to A35C U48C U66C U69A, for which the self-cleavage was determined as 0.34. Under A35G A56U A64U U72A stands 0.55; under U31G A57G U72C, 1; under U31C G33U U41A C71A, 0.06. Under A35C C38U U76A stands 0.56; under G33C A64G A75G U80A, 0.06.

As to A35G U54A A57G, the self-cleavage is 1.23.

In the case of A35G U67C U80C, the self-cleavage is 0.66. Under A35G U54G A75U stands 1.29; under A35U C37U U41C A64G, 0.18; under G33C U69C A77G, 0.12. For A35U U41A A64U, the self-cleavage stood at 0.19.

Consider A35G U49C U58C U60A, for which the self-cleavage was found to be 0.1. Under A35C U43C A47C stands 0.13; under A35G U43A U78C U80C, 1.2. Consider A35G A45U U67A, for which the self-cleavage was 0.25. Under A35G U49A A56U stands 1.25. For the variant A35G U41G U51C, the self-cleavage stood at 0.18. With A35G U51G U80A, the self-cleavage turned out to be 1.3. Under A35C U41A U54G C62A stands 0.15; under A35U U43A A57G U78C, 0.18; under A35U C62U U74G, 0.13. Under U31G G53U U54A A56G G61A U66A G73C stands 0.11.

As for A35G C44A U66A U69C A75G U80C, the self-cleavage turned out to be 0.25. Under U31G U60C A64G U69C U78A stands 0.12.

With A35G U60C C62A U74A, the self-cleavage stood at 0.47.

Regarding U31C U48C C50A A65G U72A U78A, the self-cleavage came to 0. Under U31G A35G U43C U54C U60C stands 0. Under U31C G55A U72A stands 0.24; under C34U A65G U76C, 0.17; under A35G U43C U66C U67A, 0.24. Under G33C U41A U58A stands 0.14; under A35C U51C U54C, 0.67; under G33C A47U U80C, 0.16. In the case of A35U U41A U48C, the self-cleavage was determined as 0.25. Under A35U A47G U60C A77G stands 0.15; under A35G U41C A57G A64G U67C U78G, 0.57. Under A35U U41C A57G U76C stands 0.6. Under A35G A45G U58A G63A U67C U72C stands 0.1. In the case of G33A A35U A56G A64U U78C, the self-cleavage was 0.11. Under G33A U54C U72C stands 0.14. Under A35G A47U U74C stands 1.16. Under U31C U43A U58C stands 0.24. For A35G A45G U60C, the self-cleavage amounted to 1.43.

In the case of C32G A45U A57G, the self-cleavage stood at 0.15. On to G33A C38U A56U A64G G70A U72A, for which the self-cleavage was determined as 0.06. Under U31C C38U U80A stands 0.82.

For G33A A45G A64U A77G, the self-cleavage worked out at 0.1. Under G33A A45G A57G U66C stands 0.15; under A35C U58C A64U U80C, 0.15. For A35G A45U C59A U69A U76C, the self-cleavage came out at 0.16.

Turning to A35G U41C U51A A65C U78C, the self-cleavage was 0.31. Under U31C C38U G52A stands 0.78; under A35G U51G U67C, 0.93.

Take A35U A45G A65U: the self-cleavage turned out to be 0.1.

Regarding U31C U49C G53C, the self-cleavage came out at 0.27.

Turning to A35U C40A U72A, the self-cleavage amounted to 0.35. Under C32U A35U A47G U66C A77U stands 0.06; under U31C U41A C79U, 0.12; under U31G A35G U41C U67C, 0.19.

Consider A35G U66A U69A U74C, for which the self-cleavage stood at 0.73. Under U31G U69C U78C stands 0.23; under A35G A64G U67C U80A, 0.74; under C32U A65U U67G, 0.22. Under A35C U51C U74A stands 1.16; under G33C U48C A64G U67C, 0.14. Under A35G U58A A75G stands 1.02; under A35G A45U U54C A65G U66C, 0.3. In the case of U31C G53C U74C C81U, the self-cleavage was found to be 1.16. For A35U U43A U58G, the self-cleavage worked out at 0.17. Under C34U U67C U72C G73U U80C stands 0.18. Under C32U U49G U76C stands 0.19; under A35C A56G G61A U72C U78C, 0.35; under U31G A35U C44U U72C A75C, 0.15. Under A35C A56U A57G U69A A77G stands 0.15; under C32A U51C U78C, 0.13.

In the case of A35G U51C U58A, the self-cleavage worked out at 1.14. Under C34U C71G U80G stands 0.09; under A35U A45C U72C, 0.11. Take U31C U43C G73A: the self-cleavage stood at 1.13. A35G A64G C68U: the self-cleavage was determined as 1.23. On to C32U G33A C37A U67C, for which the self-cleavage was determined as 0.15. Under A35G A47G A65U U76A stands 0.92; under A35G A56G U74C, 1.25; under U31G A35U U48C A56G A64U, 0.06. Under U31G G33A A35U A64U stands 0.09. Under C32U C39U U49C U69C stands 0.54; under G33A U41A U49C U54A U72A, 0.08; under A35G U41A C62U A64C, 0.23. On to C32U C34G C62U, for which the self-cleavage was determined as 0.11.

With A35C U41A U51A U54G C62A, the self-cleavage worked out at 0.18. Under G33A A35U U41C C50G A57G U80C stands 0.08; under G33C C39A U48C U60C U74C, 0.16.

Turning to G33A A45G U51A A56G U80C, the self-cleavage was 0.21. Under A35G A64U U69A U80C stands 0.54; under U31G A47G G53A, 0.71; under A35U C37A U43C, 0.18. Under A35G U49C G52A U74C stands 1.21; under G33A G36A U54C, 0.16. Under U31G C32U U41C C44U stands 0.12; under U31C U49C A65G U72A A77G, 0.07. In the case of G33A U41G U72C, the self-cleavage came out at 0.1. For U31C U58C A64U U74C, the self-cleavage was found to be 0.11.

Take C32A A47U U48C U58G: the self-cleavage amounted to 0.06. In the case of A35G U60A G63A U69C, the self-cleavage was found to be 0.81. Under G33A A35G U54C U66C U78C stands 0.06; under G33A U41A U54C U69G, 0.07; under G33U C40U U54C U69C U78A, 0.11. Under A35G A45U A56G A57G U58A U67C U74C stands 0.28. Under A35U G53A A64U stands 0.15. For the variant A35U A56G U78A, the self-cleavage amounted to 0.38.

For the origin of these results see the RNAGym collection of RNA variant scans (doi:10.1093/nar/gkz1192).
